# Test results taken from the supplement of paper PMC8728848.
# This is one part of the list.
# How the values were obtained:
# Test in all cases: glycan array binding signal (z-score within array); higher = stronger binding
# Conditions in all cases: glycan notation: IUPAC condensed, linker removed
# [1] = target: Fuc(a1-2)Gal(b1-4)GlcNAc6S
# Summary of the method: (§1)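 Columns mapping to the same glycan were averaged after glycan names were converted to IUPAC-condensed notation. The data come from 3228 arrays in the Consortium for Functional Glycomics database, limited to those with an available protein sequence. Binding is reported as a within-array Z-score averaged across arrays of one protein sequence and across linkers.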
# [2] = target: Fuc(a1-2)Gal(b1-4)[Fuc(a1-3)]GalNAc(b1-3)Gal(b1-4)[Fuc(a1-3)]GlcNAc
# Summary of the method: as §1
# [3] = target: Fuc(a1-2)Gal(b1-4)[Fuc(a1-3)]GalNAc(b1-3)Gal(b1-4)[Fuc(a1-3)]GlcNAc(b1-3)Gal(b1-4)[Fuc(a1-3)]GalNAc
# Summary of the method: as §1
# [4] = target: Fuc(a1-2)Gal(b1-4)[Fuc(a1-3)]GlcNAc
# Summary of the method: as §1
# [5] = target: Fuc(a1-2)Gal(b1-4)[Fuc(a1-3)]GlcNAc(b1-2)Man(a1-3)[Fuc(a1-2)Gal(b1-4)[Fuc(a1-3)]GlcNAc(b1-2)Man(a1-6)]Man(b1-4)GlcNAc(b1-4)[Fuc(a1-6)]GlcNAc
# Summary of the method: as §1
# [6] = target: Fuc(a1-2)Gal(b1-4)[Fuc(a1-3)]GlcNAc(b1-2)[Fuc(a1-2)Gal(b1-4)[Fuc(a1-3)]GlcNAc(b1-4)]Man(a1-3)[Fuc(a1-2)Gal(b1-4)[Fuc(a1-3)]GlcNAc(b1-2)Man(a1-6)]Man(b1-4)GlcNAc(b1-4)GlcNAc
# Summary of the method: as §1
# [7] = target: Fuc(a1-2)Gal(b1-4)[Fuc(a1-3)]GlcNAc(b1-3)Gal(b1-4)[Fuc(a1-3)]GlcNAc
# Summary of the method: as §1
# [8] = target: Fuc(a1-2)Gal(b1-4)[Fuc(a1-3)]GlcNAc(b1-3)Gal(b1-4)[Fuc(a1-3)]GlcNAc(b1-3)Gal(b1-4)[Fuc(a1-3)]GlcNAc
# Summary of the method: as §1
# [9] = target: Fuc(a1-2)Gal(b1-4)[Fuc(a1-3)]GlcNAc(b1-3)GalNAc
# Summary of the method: as §1
# [10] = target: Fuc(a1-2)Gal(b1-4)[Fuc(a1-3)]GlcNAc(b1-3)[Neu5Ac(a2-6)Gal(b1-4)GlcNAc(b1-6)]Gal(b1-4)Glc
# Summary of the method: as §1
# [11] = target: Fuc(a1-2)Gal3S(b1-4)GlcNAc
# Summary of the method: as §1
# [12] = target: Fuc(a1-2)Gal6S(b1-3)GlcNAc
# Summary of the method: as §1
# [13] = target: Fuc(a1-2)Gal6S(b1-3)GlcNAc6S
# Summary of the method: as §1
# [14] = target: Fuc(a1-2)Gal6S(b1-4)Glc
# Summary of the method: as §1
# [15] = target: Fuc(a1-2)Gal6S(b1-4)Glc6S
# Summary of the method: as §1
# [16] = target: Fuc(a1-2)Gal6S(b1-4)GlcNAc
# Summary of the method: as §1
# [17] = target: Fuc(a1-2)GlcNAc
# Summary of the method: as §1
# [18] = target: Fuc(a1-2)[Gal(a1-3)]Gal
# Summary of the method: as §1
# [19] = target: Fuc(a1-2)[Gal(a1-3)]Gal(b1-3)GalNAc
# Summary of the method: as §1
# [20] = target: Fuc(a1-2)[Gal(a1-3)]Gal(b1-3)GalNAc(b1-3)Gal(a1-4)Gal(b1-4)Glc
# Summary of the method: as §1
# [21] = target: Fuc(a1-2)[Gal(a1-3)]Gal(b1-3)GlcNAc
# Summary of the method: as §1
# [22] = target: Fuc(a1-2)[Gal(a1-3)]Gal(b1-3)GlcNAc(b1-2)Man(a1-3)[Fuc(a1-2)[Gal(a1-3)]Gal(b1-3)GlcNAc(b1-2)Man(a1-6)]Man(b1-4)GlcNAc(b1-4)GlcNAc
# Summary of the method: as §1
# [23] = target: Fuc(a1-2)[Gal(a1-3)]Gal(b1-3)GlcNAc(b1-2)Man(a1-3)[Fuc(a1-2)[Gal(a1-3)]Gal(b1-3)GlcNAc(b1-2)Man(a1-6)]Man(b1-4)GlcNAc(b1-4)[Fuc(a1-6)]GlcNAc
# Summary of the method: as §1
# [24] = target: Fuc(a1-2)[Gal(a1-3)]Gal(b1-3)GlcNAc(b1-3)GalNAc
# Summary of the method: as §1
# [25] = target: Fuc(a1-2)[Gal(a1-3)]Gal(b1-3)GlcNAc(b1-6)GalNAc
# Summary of the method: as §1
# [26] = target: Fuc(a1-2)[Gal(a1-3)]Gal(b1-4)Glc
# Summary of the method: as §1
# [27] = target: Fuc(a1-2)[Gal(a1-3)]Gal(b1-4)GlcNAc
# Summary of the method: as §1
# [28] = target: Fuc(a1-2)[Gal(a1-3)]Gal(b1-4)GlcNAc(b1-2)Man
# Summary of the method: as §1
# [29] = target: Fuc(a1-2)[Gal(a1-3)]Gal(b1-4)GlcNAc(b1-2)Man(a1-3)[Fuc(a1-2)[Gal(a1-3)]Gal(b1-4)GlcNAc(b1-2)Man(a1-6)]Man(b1-4)GlcNAc(b1-4)GlcNAc
# Summary of the method: as §1
# [30] = target: Fuc(a1-2)[Gal(a1-3)]Gal(b1-4)GlcNAc(b1-2)Man(a1-3)[Fuc(a1-2)[Gal(a1-3)]Gal(b1-4)GlcNAc(b1-2)Man(a1-6)]Man(b1-4)GlcNAc(b1-4)[Fuc(a1-6)]GlcNAc
# Summary of the method: as §1
# [31] = target: Fuc(a1-2)[Gal(a1-3)]Gal(b1-4)GlcNAc(b1-3)GalNAc
# Summary of the method: as §1
# [32] = target: Fuc(a1-2)[Gal(a1-3)]Gal(b1-4)GlcNAc(b1-6)GalNAc
# Summary of the method: as §1
# [33] = target: Fuc(a1-2)[Gal(a1-3)]Gal(b1-4)[Fuc(a1-3)]Glc
# Summary of the method: as §1
# [34] = target: Fuc(a1-2)[Gal(a1-3)]Gal(b1-4)[Fuc(a1-3)]GlcNAc
# Summary of the method: as §1
# [35] = target: Fuc(a1-2)[Gal(a1-3)]Gal(b1-4)[Fuc(a1-3)]GlcNAc(b1-3)GalNAc
# Summary of the method: as §1
# [36] = target: Fuc(a1-2)[Gal(a1-4)]Gal(b1-4)GalNAc
# Summary of the method: as §1
# [37] = target: Fuc(a1-2)[Gal(a1-4)]Gal(b1-4)GlcNAc
# Summary of the method: as §1
# [38] = target: Fuc(a1-2)[GalNAc(a1-3)]Gal
# Summary of the method: as §1
binder,measurement,setting,value
EEA (Euonymus europaeus) (protein) MASTIIATGPTYRVYCRAAPNYNMIVGKGVAFLAPIDETNELQYWYKDDTYSYIKDEAGLPAFSLVNKATGLTLKHSNHHPVPVKLVTYNPNVVDESVLWSQADDRGDGYSAIRSLTNPASHLEAAPLNDWSYNGAIIMGGVWIDAYNQQWKIEPHTG,glycan array binding signal (z-score),[1],0.323
same,glycan array binding signal (z-score),[2],-0.359
same,glycan array binding signal (z-score),[3],0.088
same,glycan array binding signal (z-score),[4],-0.144
same,glycan array binding signal (z-score),[5],-0.058
same,glycan array binding signal (z-score),[6],-0.076
same,glycan array binding signal (z-score),[7],-0.228
same,glycan array binding signal (z-score),[8],-0.187
same,glycan array binding signal (z-score),[9],0.023
same,glycan array binding signal (z-score),[10],-0.27
same,glycan array binding signal (z-score),[11],-0.047
same,glycan array binding signal (z-score),[12],-0.278
same,glycan array binding signal (z-score),[13],-0.003
same,glycan array binding signal (z-score),[14],-0.168
same,glycan array binding signal (z-score),[15],-0.155
same,glycan array binding signal (z-score),[16],-0.189
same,glycan array binding signal (z-score),[17],-0.153
same,glycan array binding signal (z-score),[18],1.79
same,glycan array binding signal (z-score),[19],3.44
same,glycan array binding signal (z-score),[20],2.51
same,glycan array binding signal (z-score),[21],5.83
same,glycan array binding signal (z-score),[22],5.22
same,glycan array binding signal (z-score),[23],3.76
same,glycan array binding signal (z-score),[24],2.63
same,glycan array binding signal (z-score),[25],3.77
same,glycan array binding signal (z-score),[26],4.49
same,glycan array binding signal (z-score),[27],6.17
same,glycan array binding signal (z-score),[28],3.94
same,glycan array binding signal (z-score),[29],11.4
same,glycan array binding signal (z-score),[30],5.12
same,glycan array binding signal (z-score),[31],4.01
same,glycan array binding signal (z-score),[32],-0.195
same,glycan array binding signal (z-score),[33],0.029
same,glycan array binding signal (z-score),[34],-0.181
same,glycan array binding signal (z-score),[35],-0.186
same,glycan array binding signal (z-score),[36],-0.067
same,glycan array binding signal (z-score),[37],-0.233
same,glycan array binding signal (z-score),[38],-0.23
